No constants are given. Whether binding was seen depends on the method and setting. Binding seen in cells or lysates may run through a third protein.
Columns and labels:
Assay in all cases: co-IP; endogenous proteins; anti-MTR4 antiserum, anti-RRP46 antibody or anti-RRP45 antiserum on beads, nuclear extracts of HeLa cells (Control, RRP6, MPP6, RRP6/MPP6 or DIS3 KD) and of HeLa Flp-In T-REx cells (MPP6 KD with FLAG only, FLAG-MPP6 full-length or ΔN35), overnight at 4°C; immunoblot
[1] = biological target: RRP46 (human (endogenous in HeLa)) (UniProt Q9NQT4)
[2] = biological target: RRP45 (human (endogenous in HeLa)) (UniProt Q06265)
[3] = biological target: T1, MTR4 (human (endogenous in HeLa)) (UniProt P42285)
T1 sequence: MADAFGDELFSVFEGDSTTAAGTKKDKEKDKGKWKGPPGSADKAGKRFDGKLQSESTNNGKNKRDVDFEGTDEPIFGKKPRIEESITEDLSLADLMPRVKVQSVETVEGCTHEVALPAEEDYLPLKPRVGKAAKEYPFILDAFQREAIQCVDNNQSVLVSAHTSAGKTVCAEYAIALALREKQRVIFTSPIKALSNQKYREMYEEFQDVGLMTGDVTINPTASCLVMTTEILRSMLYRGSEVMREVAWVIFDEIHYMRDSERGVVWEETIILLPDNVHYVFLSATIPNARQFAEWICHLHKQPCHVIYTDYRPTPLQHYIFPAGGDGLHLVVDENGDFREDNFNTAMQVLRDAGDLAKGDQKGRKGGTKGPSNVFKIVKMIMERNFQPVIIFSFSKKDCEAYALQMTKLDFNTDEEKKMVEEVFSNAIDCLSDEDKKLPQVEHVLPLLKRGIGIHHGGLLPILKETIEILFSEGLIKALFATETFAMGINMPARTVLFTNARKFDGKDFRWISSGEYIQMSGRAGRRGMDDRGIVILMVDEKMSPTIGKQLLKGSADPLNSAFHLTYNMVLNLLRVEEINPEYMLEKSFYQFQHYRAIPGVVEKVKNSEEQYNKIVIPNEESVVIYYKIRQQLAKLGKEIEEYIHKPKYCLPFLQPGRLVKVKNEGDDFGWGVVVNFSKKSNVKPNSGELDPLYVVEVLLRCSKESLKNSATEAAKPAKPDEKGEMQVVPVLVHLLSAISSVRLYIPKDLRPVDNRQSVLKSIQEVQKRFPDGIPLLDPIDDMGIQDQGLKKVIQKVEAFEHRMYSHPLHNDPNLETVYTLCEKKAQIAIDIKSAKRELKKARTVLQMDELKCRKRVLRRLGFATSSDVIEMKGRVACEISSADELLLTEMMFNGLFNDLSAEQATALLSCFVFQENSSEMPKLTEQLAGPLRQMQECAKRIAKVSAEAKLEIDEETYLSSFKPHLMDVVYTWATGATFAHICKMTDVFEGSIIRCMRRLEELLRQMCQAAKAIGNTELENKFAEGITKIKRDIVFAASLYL

Chains of the proteins cited; added tags and fusions are not shown.
UniProt Q9NQT4: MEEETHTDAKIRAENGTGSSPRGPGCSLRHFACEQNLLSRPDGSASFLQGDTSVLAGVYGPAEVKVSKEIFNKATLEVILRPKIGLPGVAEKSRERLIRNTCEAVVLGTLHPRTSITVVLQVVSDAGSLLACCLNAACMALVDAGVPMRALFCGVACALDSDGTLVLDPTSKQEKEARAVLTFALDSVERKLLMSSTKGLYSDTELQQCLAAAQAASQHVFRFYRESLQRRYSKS
UniProt Q06265: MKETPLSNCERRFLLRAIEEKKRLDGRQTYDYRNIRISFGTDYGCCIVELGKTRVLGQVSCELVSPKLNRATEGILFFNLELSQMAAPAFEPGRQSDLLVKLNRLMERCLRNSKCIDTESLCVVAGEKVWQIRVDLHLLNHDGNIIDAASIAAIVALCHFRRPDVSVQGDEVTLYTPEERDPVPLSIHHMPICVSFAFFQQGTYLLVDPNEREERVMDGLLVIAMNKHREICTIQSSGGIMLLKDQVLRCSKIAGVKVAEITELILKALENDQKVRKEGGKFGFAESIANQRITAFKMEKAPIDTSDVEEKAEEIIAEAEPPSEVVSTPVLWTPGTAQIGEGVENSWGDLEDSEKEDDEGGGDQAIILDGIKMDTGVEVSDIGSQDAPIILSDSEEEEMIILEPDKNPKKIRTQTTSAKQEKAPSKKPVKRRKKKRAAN

Measured: binding

B1: DIS3 (protein, UniProt Q9Y2L1 1-958)
chain: MLKSKTFLKKTRAGGVMKIVREHYLRDDIGCGAPGCAACGGAHEGPALEPQPQDPASSVCPQPHYLLPDTNVLLHQIDVLEDPAIRNVIVLQTVLQEVRNRSAPVYKRIRDVTNNQEKHFYTFTNEHHRETYVEQEQGENANDRNDRAIRVAAKWYNEHLKKMSADNQLQVIFITNDRRNKEKAIEEGIPAFTCEEYVKSLTANPELIDRLACLSEEGNEIESGKIIFSEHLPLSKLQQGIKSGTYLQGTFRASRENYLEATVWIHGDNEENKEIILQGLKHLNRAVHEDIVAVELLPKSQWVAPSSVVLHDEGQNEEDVEKEEETERMLKTAVSEKMLKPTGRVVGIIKRNWRPYCGMLSKSDIKESRRHLFTPADKRIPRIRIETRQASTLEGRRIIVAIDGWPRNSRYPNGHFVRNLGDVGEKETETEVLLLEHDVPHQPFSQAVLSFLPKMPWSITEKDMKNREDLRHLCICSVDPPGCTDIDDALHCRELENGNLEVGVHIADVSHFIRPGNALDQESARRGTTVYLCEKRIDMVPELLSSNLCSLKCDVDRLAFSCIWEMNHNAEILKTKFTKSVINSKASLTYAEAQLRIDSANMNDDITTSLRGLNKLAKILKKRRIEKGALTLSSPEVRFHMDSETHDPIDLQTKELRETNSMVEEFMLLANISVAKKIHEEFSEHALLRKHPAPPPSNYEILVKAARSRNLEIKTDTAKSLAESLDQAESPTFPYLNTLLRILATRCMMQAVYFCSGMDNDFHHYGLASPIYTHFTSPIRRYADVIVHRLLAVAIGADCTYPELTDKHKLADICKNLNFRHKMAQYAQRASVAFHTQLFFKSKGIVSEEAYILFVRKNAIVVLIPKYGLEGTVFFEEKDKPNPQLIYDDEIPSLKIEDTVFHVFDKVKVKIMLDSSNLQHQKIRMSLVEPQIPGISIPTDTSNMDLNGPKKKKMKLGK
no binding: [1] | [2] | [3]

Source: publication PMC9410898
